# The full ranking holds about 33,000 sequences; the median of “E-score (-0.5 to 0.5)” is about -0.021, and the highest 2% start at about 0.32. The list shows a part of the results.
# Biological target: T1, Zap1 (UniProt P47043)
# T1 sequence: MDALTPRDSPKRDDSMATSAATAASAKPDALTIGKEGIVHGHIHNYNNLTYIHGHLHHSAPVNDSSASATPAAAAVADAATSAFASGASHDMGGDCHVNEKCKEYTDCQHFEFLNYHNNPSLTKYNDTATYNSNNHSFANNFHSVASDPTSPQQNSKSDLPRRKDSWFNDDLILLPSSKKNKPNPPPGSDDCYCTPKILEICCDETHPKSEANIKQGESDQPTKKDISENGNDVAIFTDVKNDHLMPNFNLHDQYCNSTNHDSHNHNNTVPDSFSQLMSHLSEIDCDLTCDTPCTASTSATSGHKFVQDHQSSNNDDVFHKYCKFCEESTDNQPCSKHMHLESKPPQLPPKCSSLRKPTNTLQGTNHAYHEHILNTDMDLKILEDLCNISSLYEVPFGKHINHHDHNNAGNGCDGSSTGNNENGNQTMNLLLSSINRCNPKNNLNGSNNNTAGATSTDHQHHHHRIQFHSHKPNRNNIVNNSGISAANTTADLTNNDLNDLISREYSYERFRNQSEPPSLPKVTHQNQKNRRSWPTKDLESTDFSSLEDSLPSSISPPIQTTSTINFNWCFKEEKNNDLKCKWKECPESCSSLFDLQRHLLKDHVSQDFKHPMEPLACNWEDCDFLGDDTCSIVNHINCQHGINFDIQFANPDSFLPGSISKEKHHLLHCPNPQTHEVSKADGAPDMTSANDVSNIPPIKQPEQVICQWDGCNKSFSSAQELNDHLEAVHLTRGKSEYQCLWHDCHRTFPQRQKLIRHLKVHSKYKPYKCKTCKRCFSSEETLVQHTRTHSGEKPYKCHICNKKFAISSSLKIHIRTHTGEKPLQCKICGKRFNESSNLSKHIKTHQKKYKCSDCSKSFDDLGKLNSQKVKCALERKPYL
# Assay: PBM E-score (8-mer binding enrichment) (E-score (-0.5 to 0.5)); higher = stronger / more preferred TF binding; most listed sequences are background and not binding sites
# Conditions: protein concentration: 200 nM; construct: GST-full length
# Outline: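 For each ungapped eight-base word taken together with its reverse complement, the Universal PBM Analysis Suite assigned an E-score. Binding data came from GST-tagged yeast transcription factors, applied at about 100-200 nM, on universal all-10-mer Agilent arrays made double-stranded by primer extension. Fluorescent anti-GST marked bound protein, and scans were normalised with masliner.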
row,Sequence,PBM E-score
1,CCTTGAAC,0.0795
2,GACACTGA,-0.0233
3,AAACTGGT,0.205
4,GTAGCACA,0.017
5,GAGTGTAC,-0.135
6,AGTGACGA,0.151
7,AGAGACAT,-0.104
8,CACGTCCG,-0.161
9,AGAGTTTA,0.104
10,GGGGTTAA,0.403
11,CGGACGGA,-0.276
12,AACCGGAT,0.198
13,ATGTTCCG,-0.28
14,GATCATCC,-0.105
15,CCCGCACC,-0.0206
16,ACAATTAG,-0.026
17,AAAACGAG,0.0264
18,CGTCAGTA,-0.119
19,GAGGGAGC,-0.235
20,CCGGCGAG,-0.281
21,AGGTTTAA,0.192
22,TGATATAA,0.0544
23,ATCCCCTG,-0.214
24,ACTACAGA,0.177

row,Sequence,PBM E-score
1,ACTGCTTG,-0.247
2,GAACACAA,0.0187
3,ATCGCGCA,-0.0638
4,AATATTAG,0.176
5,GCCTCTCC,-0.188
6,GTCATCAC,0.109
7,ATGCTGAA,-0.0737
8,AAGCCATC,-0.0723
9,ATTAGTTA,0.244
10,CAGCCGAC,-0.249
11,TCCTTAGA,-0.0598
12,AGACCTGA,0.00106
13,CACGTCCA,-0.225
14,ATTCAGTG,-0.119
15,AGACTATC,-0.198
16,AGGCGTGC,-0.178
17,TAGGGAGA,-0.107
18,ACAGTAGG,-0.209
19,AGCGCACG,-0.228
20,AACACAGG,-0.201
21,AGAGGATG,-0.0538
22,CTAATGCC,-0.122
23,GGTATCGA,0.243
24,ACCTCACG,0.195

row,Sequence,PBM E-score
1,CGTGAACC,-0.0718
2,AGTTCGAA,0.0772
3,CTTCGGTA,0.0495
4,GCCTCTTA,-0.0893
5,CTCTCAAC,-0.0913
6,GTAACAAA,0.226
7,CACTGACC,0.133
8,CGATTACC,0.169
9,AGGCTAAG,-0.201
10,TCAGAGAA,-0.116
11,AGACAAAT,0.0677
12,CTTCGCTA,-0.156
13,ACCGTATC,0.152
14,CATATAAG,0.133
15,CTTCATAA,0.1
16,CCACTAGG,-0.0283
17,AATACCGC,0.146
18,GGGTCCTA,0.0382
19,ACTTCCAT,-0.0676
20,CATTGACC,0.0717
21,ATTTTCCA,0.108
22,CGACAACA,0.0946
23,GGTCGCAC,-0.0707
24,GAGCTACC,-0.0317

row,Sequence,PBM E-score
1,CCAATAAG,0.0828
2,GCTGTGCC,-0.0965
3,TGCCCGAA,-0.141
4,GAGAAGCC,-0.33
5,ACGCCTTA,-0.182
6,CCACGGAA,-0.00181
7,GAAGTCGC,-0.182
8,GTATCCGA,-0.00814
9,ATGGGGCC,-0.246
10,AACAGAGA,-0.144
11,CTATGTTC,-0.0472
12,CAATGAAG,0.0431
13,AATAGTAT,0.186
14,CCATCAAC,-0.0436
15,GCCAGCGA,-0.128
16,AATAAGTC,-0.159
17,AGACCACT,0.191
18,ACACTAGC,-0.123
19,AACGGTTA,0.397
20,AACTTATT,0.174
21,AAGTATCC,-0.0723
22,AACTGTAG,0.0607

# — the supplement of paper PMC3334620
